# Results published in PubChem BioAssay AID485344 (National Center for Advancing Translational Sciences (NCATS), 2010).
# Out of some 340,000 compounds screened, about 6,900 (2%) were called active. No stated cut-off is given here; in the data, active means inhibition above about 30%; inactive means below that, where a call was filed. The entries are a selection whose mix differs from that of the whole data set. The source gives no active or inactive call for entries shown without one.
# Target: D(2) dopamine receptor (Homo sapiens) (UniProt P14416)
# Chain of UniProt P14416 (P14416 whole entry, looked up): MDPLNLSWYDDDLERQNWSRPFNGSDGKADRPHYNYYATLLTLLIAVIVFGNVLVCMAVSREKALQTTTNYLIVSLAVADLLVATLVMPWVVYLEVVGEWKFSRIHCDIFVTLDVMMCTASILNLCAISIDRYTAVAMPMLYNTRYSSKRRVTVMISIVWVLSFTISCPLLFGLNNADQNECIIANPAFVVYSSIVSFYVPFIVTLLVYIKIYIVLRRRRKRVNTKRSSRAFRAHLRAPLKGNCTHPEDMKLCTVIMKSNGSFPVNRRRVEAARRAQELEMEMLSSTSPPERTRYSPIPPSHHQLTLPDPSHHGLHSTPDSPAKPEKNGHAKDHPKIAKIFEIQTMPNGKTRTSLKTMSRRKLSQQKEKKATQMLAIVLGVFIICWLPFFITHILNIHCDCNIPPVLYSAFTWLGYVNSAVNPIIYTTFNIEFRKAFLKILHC
# Test: HTS Assay for Allosteric Antagonists of the Human D2 Dopamine Receptor: Primary Screen for Antagonists; further: 0% is about no effect
# Conditions: HEK293 TREx D2 cells, calcium flux, dopamine EC80; at 10 µM; stronger effect = higher value
# Summary of the method: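 Compounds are added to dye-loaded, induced HEK293 T-REx cells coupled to calcium release via D2; after a 3 min kinetic read an EC80 dopamine stimulus is given and fluorescence is recorded for 3 more min.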
row,SMILES,inhibition
1,CCc1ccc(-c2nc(CSCC(=O)N3CCN(c4ccc(F)cc4)CC3)c(C)o2)cc1,13.7%
2,CCc1ccccc1NC(=O)c1cc2c(Cl)nc3ccccc3c2s1,-21%
3,CCOC(=O)c1cc(-c2ccccc2)n(-c2cccc(C(=O)N(C)c3ccc(C)cc3)c2)c1C,-16.3%
4,Fc1ccc(N2CCN(Cc3cccn3-c3nnc(N4CCN(C5CCCCC5)CC4)s3)CC2)cc1,-4.9%
5,CCOc1ccccc1CNC(=O)c1ccc(Cn2c(SCc3ccccc3)nc3cccnc32)cc1,7.88%
6,Cc1cc(C)c2nc(NC(=O)c3ccc(S(=O)(=O)N4CCC(C)CC4)cc3)sc2c1,-2.76%
7,CC(C)OC(=O)/C(C#N)=C/c1ccc(-c2ccc(Cl)c(Cl)c2)o1,3.78%
8,COc1ccc(CCNC(=O)CCCn2c(SCC(N)=O)nc3cc4c(cc3c2=O)OCO4)cc1OC,-15.1%
9,COc1ccc(CNC(=O)C2=C(C)C(=O)OC23CCN(C(C)=O)CC3)cc1,-2.43%
10,CCCCOc1ccccc1C(=O)Nc1onc2c1CCCC2,-1.59%
11,CC1CCN(c2oc(-c3ccc(COc4ccc(Cl)cc4)o3)nc2C#N)CC1,8.71%
12,CSc1ccc(CNC(=O)CCc2c(C)nn(-c3ccc(N4CCCC4)nn3)c2C)cc1,7.03%
13,COc1cccc(-c2nc3c(c(SCC(=O)Nc4cc(C)ccc4C)n2)Cc2c(CO)cnc(C)c2O3)c1,4.14%
14,CC(C)OCCCNC(=O)CSc1c2c(nc3ccc(Cl)cc13)CCCC2,13.8%
15,Cc1cccn2c(=O)cc(COc3cccc(NC(=O)COc4ccccc4)c3)nc12,1.32%
16,Cc1nc(-n2nc(C)c(CCC(C)C)c2C)sc1C(=O)Nc1ccc(Br)cc1,3.2%
17,CC(=O)c1ccc(NC(=O)CSc2nc(C3CCCC3)nc3c2c(=O)n(C)c(=O)n3C)cc1,-6.26%
18,CCOC(=O)c1ccc(NC(=O)CC2C(=O)N(c3ccc(F)cc3)C(=O)N2Cc2ccc(C)cc2)cc1 (stereo unspecified),14.4%
19,COc1ccc(Nc2cc(C(=O)NCCCN(C)Cc3ccccc3)c3ccccc3n2)cc1,-0.0378%
20,CCOc1cc(C2Sc3ccccc3NC3=C2C(=O)c2ccccc23)ccc1O (stereo unspecified),0.466%
21,COc1ccc(C(=O)Nc2ccccc2-c2nc3ccccc3s2)c(OC)c1,-17.2%

row,SMILES,inhibition
1,CCOC(=O)c1cnc2ccc(Cl)cc2c1Nc1ccc(OCC)cc1,15.5%
2,CCc1ccc2ncc3c(-c4ccc(C)cc4)nn(CC(=O)Nc4ccc(C)cc4)c3c2c1,-1.55%
3,COc1ccc(Oc2nc3c(C)cccn3c(=O)c2/C=C(\C#N)c2nc3ccccc3[nH]2)cc1,5.6%
4,COc1ccc(NC(=O)C/C(C)=N/NC(=O)CCc2ccccc2)c(OC)c1,active: 39.9%
5,Cc1cc(C)c(NC(=O)Cn2c(=O)n(-c3ccc(F)cc3)c(=O)c3c(C)c(C(=O)N(C)C)sc32)c(C)c1,12.9%
6,COC(=O)c1cc2occc2n1Cc1nc(-c2cccc(Br)c2)oc1C,8.34%
7,COc1ccc(C(=O)c2sc(Nc3cc(Cl)ccc3C)nc2N)cc1OC,9.24%
8,Cc1cc(C)cc(C(=O)OCC(=O)N2CCCCCC2)c1,active: 41.8%
9,Cc1nc2nc(SCC(=O)N(Cc3ccccc3)C(C)C)nn2c(C)c1Cc1ccccc1Cl,2.06%
10,Cc1cc(C)c2sc(N3CCN(C(=O)C4CC4)CC3)nc2c1,-18.1%
11,CSc1ccc(CCNc2ncnc3onc(-c4ccc(Cl)cc4)c23)cc1,-5.98%
12,Cc1ccc(C)c(CN2CCCNC2=O)c1,active: 30.8%
13,COc1ccc(CNC(=O)CCc2c(C)c3cc4c(C)coc4cc3oc2=O)cc1,21.3%
14,COc1ccc(CNC(=O)c2nc(S(=O)(=O)Cc3ccccc3)ncc2Cl)cc1,0.226%
15,COc1ccccc1NC(=O)Nc1nc(C(C)(C)C)cs1,active: 34.6%
16,Cc1ccc(-n2nc3c(=O)n(CC(=O)NCc4ccco4)nc(C)c3c2C)cc1,-3.49%
17,CCOc1ccc(N2CC(O)(c3ccc(F)cc3)[N+]3=C2CCCC3)cc1 (stereo unspecified),active: 30.4%
18,O=C(Nc1ccc2nc3n(c(=O)c2c1)CCCCC3)C(=O)N1CCN(c2ccc(F)cc2)CC1,active: 34.3%
19,CCOC(=O)N1CCN(Cc2nc3cc(NC(=O)c4ccccc4OC)ccc3n2C(C)C)CC1,-9.71%
20,Cc1ccccc1CNCCSc1nnnn1-c1ccccc1,1.9%
21,Cc1ccc(-n2c(=O)c3ccc(C(=O)NCc4ccco4)cc3n(Cc3ccc(Cl)cc3)c2=O)cc1,27.1%

row,SMILES,inhibition
1,Cn1c(=O)n(CCCOc2ccc(Br)cc2)c2ccccc21,active: 32.4%
2,Cc1ccc2c(c1)N(CC(=O)NCCCN1CCCCC1C)C(=O)c1cccnc1O2 (stereo unspecified),-13.8%
3,Cc1ccc2c(c1)N(S(=O)(=O)c1ccc3c(c1)NC(=O)CC(=O)N3)CCO2,-0.89%
4,COc1ccc(-n2c(=O)c3ccc(C(=O)NCc4ccc(C)cc4)cc3n(Cc3ccc(C)cc3)c2=O)cc1,1.88%
5,COc1cc2nc(NCc3ccccc3)n3nc(-c4ccccc4)nc3c2cc1OC,1.42%
6,CCOC(=O)Cc1ccc(NC(=O)N2CC(C)Oc3ccc(Cl)cc32)cc1 (stereo unspecified),-4.01%
7,COc1ccc2c(c1)cc1c(=O)n(CC(=O)NCCc3ccccc3)nc(C)n12,24.6%
8,COC(=O)c1ccccc1NC(=O)c1ccc2c(Cl)c3c(nc2c1)CCCC3,6.86%
9,Cc1nc2ccn(Cc3cccs3)c(=O)c2cc1C(=O)N1CCN(c2ccccc2)CC1,3.59%
10,O=C(Nc1cccc(Br)c1)c1cc(-c2ccc3c(c2)OCCO3)on1,-0.724%
11,COc1cc2[nH]c(=O)n(CCCCCC(=O)N3CCN(c4ccc(Cl)cc4)CC3)c(=O)c2cc1OC,7.42%
12,O=C(CSc1cn(CC(=O)N2CCCC2)c2ccccc12)Nc1ccccc1C(F)(F)F,-4.98%
13,Cc1cccc(Cn2c(=O)n(CC3CCC(C(=O)N4CCC(C)CC4)CC3)c(=O)c3sccc32)c1 (stereo unspecified),8.84%
14,OCCN1CCN(CC/C=C2/c3ccccc3Sc3ccc(Cl)cc32)CC1,active: 73%
15,Cc1nc2cc(-c3ccccc3)nn2c(C)c1CCC(=O)NCc1cccc(Cl)c1,26.9%
16,CCOCCCNc1nc2cc(OC)c(OC)cc2c2nc(-c3ccccc3)nn12,8.04%
17,CCOC(=O)c1scc(-c2ccc(C)cc2)c1S(=O)(=O)Nc1ccc(OC)c(Cl)c1,-15.3%
18,Cc1cccc(NS(=O)(=O)c2ccc3nc(-c4ccccc4)[nH]c3c2)c1C,21.1%
19,Cc1ccc(NC(=O)Cn2c(=O)n(CCC(=O)NCc3ccccc3Cl)c(=O)c3ccccc32)c(C)c1,1.68%
